Reference: PubChem BioAssay AID361 (National Center for Advancing Translational Sciences (NCATS), 2006)
In all, about 51,000 compounds went through this assay and about 600 (1.2%) were called active. Inconclusive results, whose numbers are uncertain, are shown with a selection of clear calls. Cut-off read from the data, not from the text of the source: active = potency below about 11 µM; inconclusive = mostly about 12 µM to 25 µM; inactive = weaker than that;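 the screen sought inhibitors and activators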. Potencies of inconclusive entries are left out as doubtful fits.
Potency is the fitted concentration of half-maximal effect.

The compounds below were run on pyruvate kinase (Bacillus stearothermophilus) (assay: Pyruvate Kinase). Details: purified pyruvate kinase, luminescence ATP production; ribose 5-phosphate activator present at AC10.
Procedure, shortened: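 Partially purified B. stearothermophilus pyruvate kinase (10 nM final) with 2 mM PEP, 0.1 mM ADP and 0.7 nM ribose 5 phosphate in 50 mM imidazole pH 7.2, KCl, MgCl2; 2 h at room temperature, ATP formed read by luciferase luminescence.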
With `CC(=O)c1oc2ccccc2c1N` the Potency was inactive: > 57 µM. With `CC(C)NCC(O)Cn1c2c(c3ccccc31)CCc1c-2cnn1-c1ccccc1` (configuration not stated) the Potency was inconclusive [decreasing]. In the case of `COc1ccc(-c2cc(-c3cc(F)ccc3O)[nH]n2)cc1OC`, the Potency is reported as active: 9.56 µM. In the case of `CN(C)CCCN1c2ccccc2Sc2ccc(C(F)(F)F)cc21`, the Potency is reported as inconclusive [decreasing]. With `Cc1cccc2[nH]c(-c3ccc(NC(=O)c4ccco4)cc3)nc12` the Potency was inconclusive [decreasing]. `CN(C)C=Nc1ncc2c([nH]c3ccccc32)c1C#N` was tested, and the Potency was inconclusive [decreasing]. With `COc1ccc(OC)c(C(c2nnnn2CCC(C)C)N2CCN(C(=O)c3ccco3)CC2)c1` (configuration not stated) the Potency was inactive: > 57 µM. In the case of `CCOC(=O)CC(=O)CSc1nc2c(cc1C#N)CCCCC2`, the Potency is reported as inconclusive [decreasing]. In the case of `COc1ccc(-c2ccc(-c3nnn(CC(=O)N4CCOCC4)n3)cc2)cc1`, the Potency is reported as active: 2.64 µM. For `Cc1cc(C)c(S(=O)(=O)Nc2ccc(O)cc2)cc1C`, the Potency was inconclusive [increasing]. For `COc1ccc(-c2nnc(SCC(=O)N3CCc4ccccc4C3)o2)cc1`, the Potency was inconclusive [increasing]. With `CCCc1cc(=O)oc2cc(C)cc(OCC(=O)O)c12` the Potency was inactive: > 57 µM. With `O=C(Cn1nnc(-c2cccs2)n1)N1CCc2ccccc2C1` the Potency was inconclusive [increasing]. In the case of `CC(Oc1ccc(Cl)cc1Cl)C(=O)Nc1ccc(N2CCN(C)CC2)cc1` (configuration not stated), the Potency is reported as inconclusive [increasing]. In the case of `CCOC(=O)c1cc2c(ccn2-c2ccc(F)cc2)n1CC(=O)N1CCN(C(=O)c2ccco2)CC1`, the Potency is reported as inactive: > 57 µM. `CCN(CC)S(=O)(=O)N1CCC(C(=O)NC2CCCc3ccccc32)CC1` (configuration not stated) was tested, and the Potency was inconclusive [increasing]. In the case of `c1csc(-c2nnc(-c3ccc(N4CCOCC4)cc3)o2)c1`, the Potency is reported as inconclusive [decreasing]. With `C=CCn1c(C)cc(C(=O)COc2ncnc3sccc23)c1C` the Potency was inconclusive [decreasing]. `CCOC(=O)c1cc(-c2ccc(N)cc2)sc1N` was tested, and the Potency was inconclusive [decreasing]. `c1ccc2c(c1)Cn1c-2nc2ccccc21` was tested, and the Potency was inconclusive [decreasing]. `CCn1c(-c2ccco2)n[nH]c1=S` was tested, and the Potency was inactive: > 25.6 µM. `CCCCN(C)C(=O)CCCCn1c(=O)[nH]c2cc(OCC)c(OCC)cc2c1=O` was tested, and the Potency was inactive: > 57 µM. With `Cc1ccc(-c2cc(C(=O)N3CCN(c4ncccn4)CC3)c3ccccc3n2)cc1` the Potency was active: 4.29 µM. For `CCOC(=O)CCN(Cc1cccs1)S(=O)(=O)c1ccc(Cl)cc1`, the Potency was inconclusive [increasing]. For `O=C(CSc1nc2c(c(C(F)(F)F)n1)CCc1ccccc1-2)NCc1ccco1`, the Potency was inactive: > 57 µM. For `Cc1cc(O)c(C(C)C)cc1NC(=O)Cn1nc(C)c2ccccc2c1=O`, the Potency was inconclusive [increasing]. With `CCOc1ccccc1NC(=O)c1ccccc1-c1nc(-c2ccccc2)no1` the Potency was inactive: > 57 µM. In the case of `COc1ccccc1-c1nnc(SCC(=O)Nc2ccc(Cl)cc2Cl)o1`, the Potency is reported as inconclusive [increasing]. `Cc1ccc2cc3cc(C(=O)N4CCCCC4C)oc3nc2c1` (configuration not stated) was tested, and the Potency was inconclusive [decreasing]. In the case of `O=C(CN1CCOCC1)N1CCc2ccccc2C(c2ccccc2)C1` (configuration not stated), the Potency is reported as inconclusive [increasing]. `CCCNC(=O)N1CCN(S(=O)(=O)c2ccc(C)c(C)c2)CC1` was tested, and the Potency was inconclusive [increasing]. In the case of `COc1ccc(NC(=O)C2CSC3c4ccccc4C(=O)N23)cc1` (configuration not stated), the Potency is reported as active: 10.8 µM. With `O=C(Nc1cccc(-c2cn3cccnc3n2)c1)c1ccc(Br)o1` the Potency was inactive: > 57 µM. With `CCOc1ccccc1N1CCN(S(=O)(=O)c2cccc3nsnc23)CC1` the Potency was inconclusive [increasing]. `COc1cccc(-c2nnc(SCC(=O)OC(C)C)n2N)c1` was tested, and the Potency was inconclusive [increasing]. For `Cc1cc(N2CCCC2)nc(-c2ccccc2O)n1`, the Potency was inactive: > 57 µM. For `Cc1ccc(NC(=O)NC2=N/C(=C(/C#N)C(=O)N3CCCC3)c3ccccc32)cc1`, the Potency was inconclusive [decreasing]. For `CNC(=O)CCc1nc(-c2ccc(C(C)(C)C)cc2)no1`, the Potency was inconclusive [decreasing]. In the case of `CCC(C)(C)n1nnnc1C(C(C)C)N1CCN(C)CC1` (configuration not stated), the Potency is reported as inactive: > 57 µM. In the case of `COC(=O)c1[nH]c2ccc(C)cc2c1NC(=O)CN1CCc2cc(OC)c(OC)cc2C1`, the Potency is reported as inactive: > 57 µM. In the case of `N#CCCCSc1nnc(CSc2nc3ccccc3s2)n1-c1ccccc1`, the Potency is reported as inconclusive [increasing]. With `CC(C)Oc1ccc(CSc2nnc3n(C)c(=O)c4c5c(sc4n23)CCCC5)cc1` the Potency was inactive: > 57 µM. In the case of `Fc1ccccc1-c1nc(-c2ccccc2)no1`, the Potency is reported as active: 5.75 µM. With `Cc1ccc(OCc2nnc(SCC(=O)NCc3ccccc3)n2C)cc1` the Potency was inactive: > 57 µM. With `Cc1cc(C(=O)OCC(=O)N2CCN(c3ccccc3)CC2)c2ccccc2n1` the Potency was inactive: > 57 µM. For `O=C(Nc1ccc(-c2noc(CCc3ccccc3)n2)cc1)c1ccco1`, the Potency was inconclusive [decreasing]. With `Cc1cc(C(=O)OCc2nc3ccccc3s2)c(C)o1` the Potency was inconclusive [decreasing]. `O=C(Nc1ncc(Cc2ccccc2)s1)c1cccs1` was tested, and the Potency was inconclusive [decreasing]. With `CCOc1ccc(NC(=O)c2cnsn2)cc1` the Potency was inconclusive [decreasing]. For `CCOC(=O)N1CCN(c2ccc(S(=O)(=O)N(Cc3ccccc3)Cc3ccccc3)cn2)CC1`, the Potency was inactive: > 57 µM. In the case of `Clc1ccc(-n2ncc3c(NCCN4CCOCC4)ncnc32)cc1`, the Potency is reported as inconclusive [decreasing]. With `COc1ccccc1-c1nc(-c2cccc(C)c2)no1` the Potency was active: 9.44 µM. In the case of `Cc1cc(NC(=O)Cn2cnc3c(cnn3C(C)(C)C)c2=O)no1`, the Potency is reported as inactive: > 57 µM. `COc1ccc(N2CCN(C(=O)c3cn(C)c(=O)c4c3c3ccccc3n4C)CC2)cc1` was tested, and the Potency was inactive: > 57 µM. `COCCNC(=O)CSc1nc(-c2ccc(OC)c(OC)c2)cc(C(F)(F)F)n1` was tested, and the Potency was inactive: > 57 µM. `CCCc1cc(=O)n2[nH]c(NCc3c(Cl)cccc3Cl)nc2n1` was tested, and the Potency was inconclusive [increasing]. `O=C(Nc1ccc(-c2nc3ccccc3[nH]2)cc1)c1ccco1` was tested, and the Potency was active: 3.94 µM. With `CCSc1nnc(NC(=O)c2cc(C)oc2C)s1` the Potency was inactive: > 57 µM. In the case of `O=C(N=c1nc2ccccn2s1)c1ccccc1`, the Potency is reported as active: 1.14 µM. With `COc1ccc(OC)c(Nc2nc(-c3ccc(O)c(O)c3)cs2)c1` the Potency was inconclusive [decreasing]. With `O=C(c1cccs1)c1ccc(-c2cccs2)s1` the Potency was active: 6.31 µM. In the case of `O=S(=O)(Nc1ccc2c(c1)nc1n2CCN(Cc2ccccc2)C1)c1ccc(Cl)cc1`, the Potency is reported as inconclusive [increasing]. `Cc1ccc(NC(=O)CS(=O)(=O)c2c[nH]c3ccccc23)c(C)c1` was tested, and the Potency was inconclusive [increasing]. In the case of `O=S(=O)(NCc1ccc2c(c1)OCO2)c1cccc2cccnc12`, the Potency is reported as inconclusive [increasing]. For `NC1=NC2(CCN(Cc3ccccc3)CC2)n2c(nc3ccccc32)N1`, the Potency was active: 6.86 µM. For `Cc1c(C(=O)OCCOc2ccccc2)[nH]c2c1C(=O)CCC2`, the Potency was inconclusive [decreasing]. With `COc1cc(SC)ccc1C(=O)Nc1ccon1` the Potency was inconclusive [decreasing]. `CCc1ccc(NC(=O)c2noc3c2CCCCC3)cc1` was tested, and the Potency was inactive: > 57 µM. `CCc1ccc(OCc2nc(-c3ccccn3)no2)c(Br)c1` was tested, and the Potency was inconclusive [decreasing]. With `CCOC(=O)c1[nH]c2ccc(OCC)cc2c1NC(=O)CN1CCC2(CC1)OCCO2` the Potency was inconclusive [increasing]. For `N#Cc1c(-c2ccco2)cc(-c2ccc(F)cc2)nc1N`, the Potency was active: 4.68 µM. For `COc1ccc2cc3cc(C(=O)NCCN4CCN(Cc5ccccc5)CC4)oc3nc2c1`, the Potency was inconclusive [decreasing]. `CC(Sc1cccc2cccc(C(=O)O)c12)C(=O)O` (configuration not stated) was tested, and the Potency was inconclusive [increasing]. In the case of `O=S(=O)(NCC1CCCO1)c1cc(Br)c(Br)s1` (configuration not stated), the Potency is reported as inconclusive [increasing]. For `O=C(Nc1ccc(C(F)(F)F)cc1)C1CCCN1S(=O)(=O)c1cccc2cccnc12` (configuration not stated), the Potency was inconclusive [increasing]. `CC1(C)C(=O)OC(c2c(F)c(F)c(F)c(F)c2F)C2(CCCCC2)C1=O` (configuration not stated) was tested, and the Potency was inconclusive [increasing]. With `O=C1c2cccc3c(Cl)ccc(c23)C(=O)N1O` the Potency was active: 5.09 µM. In the case of `COC(=O)c1nc2n(n1)C(c1ccc(OC)c(OC)c1OC)C1=C(CCCC1=O)N2` (configuration not stated), the Potency is reported as inconclusive [increasing]. For `Cc1ccc(C(C#N)N2CCOCC2)cc1` (configuration not stated), the Potency was inactive: > 57 µM. For `N#Cc1nc(Cc2cccc3ccccc23)oc1NCCCn1ccnc1`, the Potency was inconclusive [increasing]. For `CCCCn1c(SCN2C(=O)c3ccccc3C2=O)nc2cc(S(N)(=O)=O)ccc21`, the Potency was inactive: > 57 µM. `CC(C)(C)c1ccc(-c2conc2N)cc1` was tested, and the Potency was inconclusive [decreasing].
